For the experiment, the system named is NCI-H322M lung. The experiment in a line: inhibition of tumour cell growth, NCI panel, 48 h.

Molecules are shown by their SMILES. Several values for one entry are separate records, joined by “and”; a condition that tells them apart may be missing. Equal values may be shown once.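 Test compounds were applied to cells in 96-well plates for 48 hours at 5 doses. Abbreviation: GI50, concentration required for 50% inhibition of growth. The concentration for full growth arrest is given as TGI.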

Regarding `S=C1C(CCCOCc2ccccc2)C2CCCC23CC2(CCN13)OCCS2` (stereo not given), the TGI was more than 10 µM.

Take `COc1ccc2[nH]cc(C3(c4c[nH]c5ccc(OC)cc45)C(=O)Nc4ccc(Cl)cc43)c2c1`: the GI50 is 3.66 µM and the TGI was determined as 45.5 µM.

For `O=C(CS(=O)c1nc2ccccc2nc1-c1ccccc1)Nc1ccc(Cl)cc1` (stereo not given), the GI50 was 25.7 µM and the TGI came to 77.7 µM.

Consider `CC(=O)OC(C)(C)C[N+](=O)[O-]`, for which the TGI is more than 100 µM.

For `Cn1c2ccccc2c(=NNc2ccc(S(=O)(=O)N=C(N)N)cc2)c2ccccc21`, the TGI is 19.1 µM.

With `CCN(CC)CCCNC(=O)c1ccccc1Nc1c(Cl)cccc1Cl`, the TGI came to 29.4 µM.

With `CC(=O)OCC1OC([S-])C(OC(C)=O)C(OC(C)=O)C1OC(C)=O.[Au+].c1ccc(CN2[CH-]N(Cc3ccccc3)C(c3ccccc3)=C2c2ccccc2)cc1`, the TGI was 27.3 µM and 5.16 µM.

Turning to `CN(CCCCCCCCNc1ccnc2ccccc12)Cc1ccc(-c2ccc(-c3ccc(C#N)cc3)s2)cc1`, the GI50 is 1.47 µM and the TGI worked out at 2.83 µM.

In turn, `C=C1C(=O)O[C@H]2C1C[C@H](O)/C(C)=C/CC[C@@]1(C)O[C@H]21` (stereo not given in full) returned a TGI of 48.9 µM.

`O=C1Nc2n[nH]c(=S)n2NC12c1ccccc1-c1ccccc12` showed a TGI of 29.2 µM.

Take `CSc1nc(SC)c2c(C)c(Br)[nH]c2n1`: the TGI was more than 100 µM.

As for `COc1ccc2c(c1)C(=O)/C(=C/c1cccc(OCC(=O)c3ccc([N+](=O)[O-])cc3)c1)CO2`, the GI50 is 15.7 µM and the TGI is 30 µM.

`CCCCCC1CC(C(C)=O)CN1c1ccc(F)cc1` (stereo not given) came in with a TGI of more than 100 µM.

Turning to `CN(CO)c1nc(N(C)CO)nc(N(C)CO)n1`, the GI50 was 38.7 µM; the TGI is > 79.7 µM and 59.3 µM.

For the compound `Cc1cc(C(=O)CC(Cl)=C(Cl)Cl)c(Cl)cc1Cl`, the GI50 was 23.8 µM and the TGI is 78.7 µM.

Turning to `O=C1NC(NNc2ccccc2)=N/C1=C\c1ccco1`, the TGI was more than 100 µM.

With `COc1ccccc1/C=C1\CCC(CN2CCOCC2)C1=O` (stereo not given), the TGI was found to be 32.5 µM.

`CN(C)C1(N(C)C)Oc2c(c(=O)n(C)c(=O)n2C)C(c2ccc(F)cc2)C1(F)F` (stereo not given) came in with a TGI of more than 100 µM.

In turn, `Cc1nnc(N)nc1C/C=C/C(C)Sc1ccc(Cl)cc1` (stereo not given) had a TGI of more than 58.3 µM.

On to `O=C1NC(c2cccc3ccccc23)Nc2ccccc21` (stereo not given), for which the GI50 was 0.172 µM and the TGI was found to be 0.872 µM.

For `CC(C)c1ccc(C(O)(C(=O)O)c2ccc(C(C)C)cc2)cc1`, the TGI is more than 100 µM.

With `CN(C)c1ccc(/C=N/n2c(CCCCc3n[nH]c(=S)n3/N=C/c3ccc(N(C)C)cc3)n[nH]c2=S)cc1`, the GI50 is more than 100 µM and the TGI is more than 100 µM.

In turn, `COc1ccccc1NC(=O)C(=O)C(c1cnc2ccc([N+](=O)[O-])cc2n1)[N+](=O)[O-]` (stereo not given) registered a TGI of more than 100 µM.

As to `CCOC(=O)Nc1cc2c(c(N)n1)N=C(c1ccccc1)CN2`, the TGI came to 31.8 µM.

For the compound `CC(=O)CCn1[nH]c(=O)c(Cl)c(Cl)c1=O`, the TGI was more than 100 µM.

For the compound `N#C/C(=C\c1ccccc1F)C(=O)c1ccccc1`, the TGI was more than 100 µM.

For the compound `COc1ccc(-c2nsc3c2NC(=O)CC3c2cccc(F)c2)cc1` (stereo not given), the GI50 was 6.42 µM and the TGI is more than 100 µM.

For the compound `CCN(CC)CCOc1ccc(NC(=O)C(C(C)C)N2C(=O)/C(=C/c3ccc(Br)cc3)SC2=S)cc1` (stereo not given), the GI50 was 2.92 µM and the TGI is 10.7 µM.

`CC(NNC(=S)N1CCCC1)c1cccnn1` (stereo not given) returned a TGI of more than 100 µM.

The compound `CCCCCCCCC1C(C)c2c([nH]c3ccccc23)C2C(=O)N(c3ccccc3)C(=O)C21` (stereo not given) returned a TGI of 35.8 µM.

Regarding `Cc1cc2oc(=O)cc(OC/C=C3/CCC(=O)O3)c2cc1C`, the GI50 was 7.91 µM and the TGI is 22.9 µM.

`CCOC(=O)Cc1ccc(Nc2nc3cc(F)c(F)cc3nc2C(=O)OCC)cc1` had a TGI of more than 100 µM.

With `CCN(CC)CCC(=O)Nc1ccc2sc3ccccc3c(=O)c2n1`, the TGI amounted to 40.7 µM.

The compound `CC1(C)C2=CCCC(=O)[C@@]2(C)CC[C@@H]1O` had a TGI of more than 100 µM.

As for `CCOC1Oc2ccccc2C(=O)/C1=C\Nc1ccc(C(=O)O)c(O)c1` (stereo not given), the GI50 was more than 100 µM and the TGI was more than 100 µM.

Consider `O=C(CCN1CCCC1)Nc1ccc2c(Nc3ccc(Br)cc3)c3ccccc3nc2c1`, for which the GI50 was 1.6 µM and the TGI was determined as 2.95 µM.

On to `C#Cc1cccc(Nc2ncnc3ccc(-c4cnc(N)nc4)cc23)c1`, for which the GI50 was 0.353 µM and the TGI came to 4.54 µM.

For the compound `O=C(Nc1cccc(-n2ccc3c(NC(=O)c4ccccc4)nccc32)c1)c1ccc(Cl)c(Cl)c1`, the GI50 is 0.615 µM and the TGI was determined as 2.1 µM.

As for `CCCCCCCCCCCCCP(=O)(OC)OC`, the TGI amounted to 29.9 µM.

For the compound `O=C(C(=O)c1cccnc1)c1cccnc1`, the GI50 was more than 100 µM and the TGI is more than 100 µM.

For the compound `Fc1ccc(-c2c(-c3ccncc3)[nH]c3cccnc23)cc1`, the GI50 was 11.3 µM and the TGI is more than 25 µM.

`CC[C@H](C)C(=O)O[C@H]1CCC=C2C=C[C@H](C)[C@H](CC[C@@H]3C[C@@H](O)CC(=O)O3)[C@H]21`: the GI50 is 6.85 µM and the TGI was more than 100 µM.

Regarding `C=C1C(=O)O[C@H]2[C@H]1CC/C(CNC(=O)C(C)c1ccc(CC(C)C)cc1)=C\CC[C@@]1(C)O[C@@H]21` (stereo not given in full), the GI50 is 4.86 µM and the TGI worked out at 17 µM.

`O=[N+]([O-])c1cc(C(F)(F)F)cc2n[se]nc12` returned a TGI of 29.4 µM.

`O=S1(=O)OCCOS(=O)(=O)C1(Br)Br` registered a TGI of more than 100 µM.

Regarding `COc1cccc(C2c3cc4c(cc3OC(NNC(N)=O)C2C)OCO4)c1OC` (stereo not given), the TGI worked out at 93 µM.

Compound `CC(C)C1CCC(=O)CC1CCCCC1CC(=O)CC1O[Si](C)(C)C(C)(C)C` (stereo not given) came in with a TGI of 29.5 µM.

In the case of `CC(=O)c1ccc(Nc2nc3ccccc3c3occc23)cc1`, the TGI is 99.8 µM.

Take `CC1=C(C(=O)NNC(=O)c2ccccc2O)CC(C(=O)NNC(=O)c2ccccc2O)=C(C)N1`: the TGI was more than 100 µM.

Turning to `CC(c1ccccc1)n1c2ccccc2c2c(N)ncnc21` (stereo not given), the TGI turned out to be 33 µM.

`CCc1cc2c(Nc3ccccc3)c3c(nc2s1)CCCC3` returned a TGI of more than 100 µM.

On to `COc1ccc(Cl)cc1Nc1nc(C(F)(F)F)ccc1C(=O)N/N=C/c1ccccc1Cl`, for which the GI50 was 0.475 µM and the TGI came out at 4.31 µM.

As for `NCCCC(N)(C(=O)O)C(F)F` (stereo not given), the TGI is more than 5000 µM.

`COc1ccc2nc3c([N+](=O)[O-])ccc4c3c(c2c1)N=CN4CCN(C)C` had a TGI of 13.1 µM.

For `C[C@H]1[C@H](C)CC[C@]2(C(=O)O)CCC3(COC(=O)/C=C/c4ccc(O)cc4)C(=CCC4[C@@]5(C)CC[C@H](O)C(C)(C)C5CC[C@]43C)[C@H]12` (stereo not given in full), the TGI stood at 13.3 µM.

With `COc1ccc2[nH]cc(Cc3c[nH]c4ccc(OC)cc34)c2c1`, the GI50 is 17.8 µM and the TGI stood at 42.8 µM.

Consider `COc1c(N2CCCCC2)c2c(=O)c3ccccc3oc2c2c3ccccc3n(C)c12`, for which the TGI is more than 100 µM.

Consider `Cc1ccc2c(c1)C(=O)/C(=C/c1cccc(OCC(=O)c3ccc(Cl)cc3)c1)CS2`, for which the GI50 was 60.5 µM and the TGI was more than 100 µM.

Consider `C[n+]1ccc2/c(=C\C#N)c3ccccc3n21`, for which the TGI is 66.4 µM.

`Cc1ccc2nc(-c3nccn3C)cc(C(=O)NC(C)CN(C)C)c2c1` (stereo not given) displayed a TGI of more than 100 µM.

`COc1ccc(C(SCCO)(c2ccc(OC)cc2)c2ccc(OC)cc2)cc1` returned a TGI of more than 100 µM.

`CCC1=CCC(P(=O)(c2ccccc2)c2ccccc2)CC1C` (stereo not given): the TGI is more than 100 µM.

As to `O=C(N/N=C/c1cc(Cl)cc(Cl)c1[O-])c1ccccc1O.O=C(N/N=C/c1cc(Cl)cc(Cl)c1[O-])c1ccccc1O.[Cu+2]`, the GI50 was 0.516 µM and the TGI is 1.74 µM.

Turning to `Cn1c2ccccc2c2c(=O)n(CCCC(=O)NCCc3cnc[nH]3)c3c(-c4ccccc4)nnn3c21`, the GI50 is 11 µM and the TGI was 29.4 µM.

Compound `O=C(O)C1C2C=CC(O2)C1C(=O)NCc1ccncc1` (stereo not given) registered a TGI of more than 100 µM.

In turn, `Cc1ccc(-c2nc3ccccc3c(=O)n2NC2OC(CO)C(O)C(O)C2O)cc1` (stereo not given) showed a TGI of more than 100 µM.

For `CCOP(=O)(OCC)C(NC(c1ccccc1)c1ccccc1)c1ccsc1` (stereo not given), the GI50 was 15.5 µM and the TGI is 29.7 µM.

With `NCCNc1ccc(NCCN)c2c1C(=O)c1c(O)ccc(O)c1C2=O`, the GI50 is 0.221 µM; the TGI is 1.92 µM and 1.24 µM.

Consider `CC1OC(OC2C(O)C(OCCc3ccc(O)c(O)c3)OC(CO)C2OC(=O)/C=C/c2ccc(O)c(O)c2)C(O)C(O)C1O` (stereo not given), for which the GI50 was more than 100 µM and the TGI is more than 100 µM.

As for `CN(C)C[C@@H]1CCn2cc(c3ccccc32)C2=C(C(=O)NC2=O)c2cn(c3ccccc23)CCO1`, the GI50 is 2.81 µM and the TGI was more than 10 µM.

As for `O=C(N/N=C/c1cc(Cl)cc(Cl)c1[OH2+])c1ccncc1.O=S(=O)([O-])[O-].[Fe+2]`, the TGI is 38.2 µM.

`CCOC(=O)C12CCC(c3c(C)cccc3C)(O1)C(C(=O)OC)=C2C(=O)OC` (stereo not given) returned a TGI of more than 10 µM.

In turn, `CCOC(=O)C(CCSC)(CCSC)C(=O)OCC` yielded a TGI of more than 100 µM.

Compound `O=C(/C=C/c1ccc(Cl)cc1)c1nc2ccccc2[nH]1` displayed a TGI of more than 100 µM.

`C[C@@]12C[C@@H](c3ccccc3O1)N1CCCSC1=N2` returned a TGI of more than 100 µM.

`Clc1ccc2c(c1)CC1C[N+]3=C(CCCCC3)C1=C2` (stereo not given) displayed a TGI of more than 100 µM.

In the case of `NS(=O)(=O)c1ccc(-n2nc(-c3ccccc3)cc2-c2cc(O)ccc2O)cc1`, the GI50 was 32.4 µM and the TGI was more than 100 µM.

`Cc1c2c(n3c(nc4ccccc43)c1C#N)NCC2` yielded a TGI of more than 10 µM.

`COC1=C(OC)C(=O)C(C/C=C/c2c(Cl)nc3sccn23)=C(C)C1=O` registered a TGI of 78.8 µM.

In turn, `O=C1C(c2ccccc2)=[N+]([O-])c2cc([N+](=O)[O-])ccc21` showed a TGI of more than 100 µM.

On to `CCCc1nn(C)c(CCC(=O)N(Cc2ccccc2)Cc2ccccc2)c1CC`, for which the TGI was more than 100 µM.

`C=C(C)C1CC=C(C)C(O)([C@@]2(O)C[C@H](C(=C)C)CC=C2C)C1` (stereo not given in full): the TGI was more than 100 µM.

`O=C(N/N=C\c1ccc(Cl)cc1)Nc1cccc2ccccc12` registered a TGI of more than 43.3 µM.

On to `Oc1ccccc1/C=N\Nc1ccccc1`, for which the GI50 was 21.5 µM and the TGI is more than 100 µM.

The compound `CC(=O)C(C(=O)C(=O)Nc1cc(Cl)c(Cl)cc1Cl)c1csc(N)n1` (stereo not given) gave a TGI of more than 100 µM.

The values are drawn from PubChem BioAssay (NCI).
